# Experimental data as given in the RNAGym collection of RNA variant scans (doi:10.7554/elife.90254).
# The source gives no read counts; variants with many changes may rest on few reads.
# B1: OR4K15 (parent)
# chain: GUUAACGGUCAUAGGCCAUGGAAACUAGGAGCACCAUUUCGCUGCCAGUGAAGAAAUGAACAAAGAAAAUCUGGGCCAGGCAGGCAUCAAAAGAAAUAGUCUUGCGCUCAACCAGAAAGUCUGUAAUCAUUUUAAGGGUA
# Variants of: B1
# Experiment: self-cleavage, relative activity (ratio to wild type); higher = more cleavage; in vitro, sequencing; the parent is a self-cleaving ribozyme
row,Variant,self-cleavage
1,A59G U108G A110U A140G,0.03
2,A22U A59G A90G A135U,0.94
3,A51G A67G A117G,1.44
4,U9C U108C U130C,0.01
5,A33G U49C A78G A82U,0.06
6,A60G U70C A114G,0.04
7,G14A U87C A94G U130C,0.72
8,A23G A56G U70C U100C U122C,1.39
9,A62G A94G U108A,0.01
10,A18G A86U A118G,2.41
11,U43C U97G G137A,1.74
12,A51G U97C A110G A135G,0.2
13,A52G A62G U131C,0.91
14,A52G A82G U130G,0.2
15,A30C A55U A116U,0.12
16,A36C U43C U87C,1.85
17,U37C A78G A98G U139C,0.09
18,A11G A52G U108A U131C,0.02
19,A56G A60G A94G U102C U127C,1.24
20,A47G A51G A68G A82G,0.32
21,A23G A82G C105A,0.08

row,Variant,self-cleavage
1,A78G A89U A116G,0.08
2,A23G A30U A90G,1.37
3,A69U A91U U97C A117G,1.46
4,U70C U103C A114G,0.03
5,A33G U49C A69G A95G,1.23
6,A55G A56G A96U,1.33
7,A30G U37C U49C A60G A96G,1.22
8,A54G U57C A60G A63G C128A,0.33
9,A60G C85U A89G A91G A118U U139C,0.09
10,A22U U37C A47G A64G U131C,0.47
11,U38A A52G A91G U130C,1.61
12,A36U U43A A56G U57C A140G,1.46
13,A24G A89G U120C,0.01
14,U2C U39C A78G,0.35
15,A56G U133A G137A,1.53
16,A27G A30G C45G A125G U132C,0.64
17,A54G U87C A92G,1.24
18,A4G U57C A59G A129G,0.3
19,A33G A59G A90G,0.9
20,A63G A69G U132G,2.74
21,U9C A24G A67G G74U,0.14

row,Variant,self-cleavage
1,U3C A60U U87C,1.44
2,U12C G75A A82U,0.13
3,U2C U9C A22G A30G,1.68
4,A22G A55G U72C,0.65
5,U12C A60G A86G A90G A125G,0.13
6,A90C U127A A134G,1.79
7,A63U A69G A129C,0.4
8,U9C U43C A66U,1.26
9,A59G A82G A94G,0.63
10,U9C U19A U102A,0.56
11,A30C A110G U120C,0.05
12,A47G U108C U120C,0.01
13,A22G A33G A140G,1.31
14,A52G G65A U70C U72C A98G C105U,0.02
15,A4G U39C U57C,0.19
16,A62G A64G U72A A116G A118G,0.06
17,U72C C128G U133C,0.14
18,U9C A22G A111G A114U U132C,0.04
19,U49C A117G A135U,2.38
20,U12C A68G A82G,0.45
21,A78U A92G A111G,0.02

row,Variant,self-cleavage
1,C16G A22G A55G A89G A94G,0.41
2,A23U A55G A63G,1.25
3,C6U A36U A59G A68G,1.09
4,U49A A51G A56G A89U,0.71
5,U3C A11U A95G,1.55
6,U49A A56G A118C,0.67
7,C35A U43C A47U A52G,0.54
8,U19C A92G A117G U120C,0.18
9,U9A A33G U38A C81A A125U,0.16
10,A5G A47G U49G A60U C88A,1.59
11,A33G A126G A140G,0.83
12,A4G G21U A22G A23G,1.14
13,G15A A66U A86G U120A,0.39
14,U9A A18G U37C U108G,0.01
15,A13G A78G A82U A91G,0.1
16,G14A U97C A116U,0.03
17,A54G A64G G75A U102C C112U A118G,0.01
18,A22U A47G U57C A140U,0.82
19,A30G A64G U100A U127A G137U,0.91
20,U2C A95G G119A,1.45
21,A30G A66G A117G U124C,1.12
